According to patent US20170165373A1 (Amgen, published 2017):
Like-named read-outs stand apart in the source and are kept apart here.

Experiments:
[1] = target: T1, human BCMA (huBCMA), full length, on cells (human, UniProt Q02223 1-184); experiment: FACS, H929 cells
T1 construct: also called native huBCMA; B-cell maturation antigen
T1 chain: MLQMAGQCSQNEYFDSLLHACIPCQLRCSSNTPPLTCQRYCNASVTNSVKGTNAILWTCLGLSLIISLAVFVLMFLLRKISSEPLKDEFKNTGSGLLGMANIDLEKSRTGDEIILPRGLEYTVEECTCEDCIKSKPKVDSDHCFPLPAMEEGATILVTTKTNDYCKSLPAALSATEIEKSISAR

[2] = target: T1, human BCMA (huBCMA), full length, on …; experiment: cell-based or functional assay
[3] = target: T1, human BCMA (huBCMA), full length, on …; experiment: cell-based or functional assay
[4] = target: T1, human BCMA (huBCMA), full length, on …; experiment: FACS on H929 cells, native BCMA, relative binding, indirect
[5] = target: T1, human BCMA (huBCMA), full length, on …; experiment: cell-based or functional assay
[6] = target: T1, human BCMA (huBCMA), full length, on …; experiment: cell-based or functional assay

B1: 2A1 Covariance 1 (2A1_C107T) (antibody, human IgG1, lambda)
heavy: EVQLVESGGGLVKPGRSLRLSCTASGFTFGDYALSWFRQAPGKGLEWVGVSRSKAYGGTTDYAASVKGRFTISRDDSKSFAYLQMNSLKTEDTAVYYCTSSGYSSGWTPFDYWGQGTLVTVSS[omitted - human IgG1 constant region]
light: QSVLTQPPSASGTPGQRVTISCSGSSSNIGSNTVNWYQQLPGTAPKLLIFNYHQRPSGVPDRFSGSKSGSSASLAISGLQSEDEADYYCAAWDDSLNGWVFGGGTELTVLGQPKAAPSVTLFPPSSEELQANKATLVCLISDFYPGAVTVAWKADSSPVKAGVETTTPSKQSNNKYAASSYLSLTPEQWKSHRSYSCQVTHEGSTVEKTVAPTECS
notes: also called Ab-19
- EC50 (read off the curve) [1]: ~0.2 µg/mL
- ADCC EC50 [2]: 0.0238 µg/mL
- ADCC EC50 [3]: 0.031 µg/mL

B2: 2A1 Covariance 2 (2A1_R17G + C107T) (antibody, human IgG1, lambda)
heavy: EVQLVESGGGLVKPGGSLRLSCTASGFTFGDYALSWFRQAPGKGLEWVGVSRSKAYGGTTDYAASVKGRFTISRDDSKSFAYLQMNSLKTEDTAVYYCTSSGYSSGWTPFDYWGQGTLVTVSS[omitted - human IgG1 constant region]
light: QSVLTQPPSASGTPGQRVTISCSGSSSNIGSNTVNWYQQLPGTAPKLLIFNYHQRPSGVPDRFSGSKSGSSASLAISGLQSEDEADYYCAAWDDSLNGWVFGGGTELTVLGQPKAAPSVTLFPPSSEELQANKATLVCLISDFYPGAVTVAWKADSSPVKAGVETTTPSKQSNNKYAASSYLSLTPEQWKSHRSYSCQVTHEGSTVEKTVAPTECS
- ADCC EC50 [2]: 0.0241 µg/mL

B3: 2A1 Covariance 18 (2A1_K14Q + R17G + T24A + G32S + F44V + G56S + D84N + F88T + T98A + C107A; 2A1_E144K VL) (antibody, human IgG1, lambda)
heavy: EVQLVESGGGLVQPGGSLRLSCAASGFTFSDYALSWVRQAPGKGLEWVSVSRSKAYGGTTDYAASVKGRFTISRDNSKSTAYLQMNSLKAEDTAVYYCASSGYSSGWTPFDYWGQGTLVTVSS[omitted - human IgG1 constant region]
light: QSVLTQPPSASGTPGQRVTISCSGSSSNIGSNTVNWYQQLPGTAPKLLIFNYHQRPSGVPDRFSGSKSGSSASLAISGLQSEDEADYYCAAWDDSLNGWVFGGGTKLTVLGQPKAAPSVTLFPPSSEELQANKATLVCLISDFYPGAVTVAWKADSSPVKAGVETTTPSKQSNNKYAASSYLSLTPEQWKSHRSYSCQVTHEGSTVEKTVAPTECS
- ADCC EC50 [2]: 0.359 µg/mL

B4: 2A1CV5-MCC-DM1 (Ab-1 ADC) (other)
heavy: EVQLVESGGGLVKPGGSLRLSCAASGFTFGDYALSWFRQAPGKGLEWVGVSRSKAYGGTTDYAASVKGRFTISRDDSKSTAYLQMNSLKTEDTAVYYCASSGYSSGWTPFDYWGQGTLVTVSS[omitted - human IgG1 constant region]
light: QSVLTQPPSASGTPGQRVTISCSGSSSNIGSNTVNWYQQLPGTAPKLLIFNYHQRPSGVPDRFSGSKSGSSASLAISGLQSEDEADYYCAAWDDSLNGWVFGGGTKLTVLGQPKAAPSVTLFPPSSEELQANKATLVCLISDFYPGAVTVAWKADSSPVKAGVETTTPSKQSNNKYAASSYLSLTPEQWKSHRSYSCQVTHEGSTVEKTVAPTECS
modifications: DM1 coupled through the non-cleavable SMCC (MCC) linker; sites not stated
notes: also called 2A1CV5 ADC
- EC50 [4]: 2.9 nM
- H929 cell growth inhibition IC50 (CellTiter-Glo, 96 h) [5]: 0.234 nM
- cell viability IC50 (CellTiter-Glo, 96 h), H929 [6]: 1.9 nM DM1
- cell viability IC50 (CellTiter-Glo, 96 h), KMS11 [6]: 6.1 nM DM1
- cell viability IC50 (CellTiter-Glo, 96 h), KMS26 [6]: 3.1 nM DM1
- cell viability IC50 (CellTiter-Glo, 96 h), KMS28BM [6]: 3.5 nM DM1
- cell viability IC50 (CellTiter-Glo, 96 h), KMS28PE [6]: 4.7 nM DM1
- cell viability IC50 (CellTiter-Glo, 96 h), KMS34 [6]: 5 nM DM1
- cell viability IC50 (CellTiter-Glo, 96 h), MM1R [6]: 3.6 nM DM1
- cell viability IC50 (CellTiter-Glo, 96 h), MM1S [6]: 1.8 nM DM1
- cell viability IC50 (CellTiter-Glo, 96 h), U266 [6]: 2.4 nM DM1
